# Results reported in the supplement of paper PMC10037445.
# The full ranking holds about 2,900 compounds; the median of “NF-kB SEAP reporter activity, fold change vs agonist alone” is about 0.99, and the highest 2% start at about 2.6. The list shows a part of the results.
# Legend:
# [1] = system: RAW-Dual; assay: NF-kB SEAP reporter activity, fold change vs agonist alone; cytotoxicity flag (confluency mask): not cytotoxic; higher = enhanced NF-kB activity
# In short: (§1)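 RAW-Dual macrophages were seeded in DMEM at 50,000 cells/well in 384-well plates, given 50 nL of library stock by pin tool, and given a PRR agonist 1 h later. Plates were held at 37 °C, 5% CO2 for 20 hours, after which supernatant was read for IRF by QuantiLuc luminescence and for NF-κB by QuantiBlue absorbance at 620 nm. Reporter activity is expressed as fold change over wells that received agonist alone. A well was called cytotoxic when IncuCyte confluency fell below 70% of agonist controls in both mask sets.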
# [2] = system: RAW-Dual; assay: NF-kB SEAP reporter activity, fold change vs agonist alone; higher = enhanced NF-kB activity
# In short: as §1
# [3] = system: RAW-Dual; assay: NF-kB SEAP reporter activity, fold change vs agonist alone; cytotoxicity flag (confluency mask): cytotoxic (confluency <70% of control); higher = enhanced NF-kB activity
# In short: as §1
# [4] = agonist: ODN 1826 (TLR9) 0.5 ug/mL
# [5] = agonist: Pam2CSK4 (TLR2/6) 0.1 ug/mL
# [6] = agonist: Pam3CSK4 (TLR2/1) 0.1 ug/mL
# [7] = library stock concentration (final ~1000-fold dilution): 10 mM, cytotoxicity flag (confluency mask): not cytotoxic, agonist: Imiquimod (TLR7) […]
# [8] = library stock concentration (final ~1000-fold dilution): 10 mM, cytotoxicity flag (confluency mask): not cytotoxic, agonist: MPLA (TLR4) […]
smiles,measurement,setting,value
CC1(c2nc3c(C(N)=O)cccc3[nH]2)CCCN1 (stereo not drawn) (library stock concentration (final ~1000-fold dilution): 10 mM),NF-kB SEAP reporter activity,[1]; agonist: LPS (TLR4) 0.1 ug/mL,1.14
same,NF-kB SEAP reporter activity,[1]; [4],0.972
same,NF-kB SEAP reporter activity,[1]; [5],0.955
same,NF-kB SEAP reporter activity,[1]; [6],0.991
CC1(c2nc3c(C(N)=O)cccc3[nH]2)CCCN1 (stereo not drawn),NF-kB SEAP reporter activity,[2]; [7],1.05
same,NF-kB SEAP reporter activity,[2]; [8],0.99
COc1ccc(CCC(=O)N(c2nccc3ccccc23)C2CCCNC2)cc1 (stereo not drawn),NF-kB SEAP reporter activity,[2]; [7],1.07
same,NF-kB SEAP reporter activity,[2]; [8],1.29
COc1ccc(CCC(=O)N(c2nccc3ccccc23)C2CCCNC2)cc1 (stereo not drawn) (library stock concentration (final ~1000-fold dilution): 10 mM),NF-kB SEAP reporter activity,[1]; agonist: LPS (TLR4) 0.1 ug/mL,1.05
same,NF-kB SEAP reporter activity,[1]; [4],0.84
same,NF-kB SEAP reporter activity,[1]; [5],1.09
same,NF-kB SEAP reporter activity,[1]; [6],1.08
CC(C)CN(CC(O)C(Cc1ccccc1)NC(=O)OC1COC2OCCC12)S(=O)(=O)c1ccc(N)cc1.CCO (stereo not drawn),NF-kB SEAP reporter activity,[2]; [7],1.42
same,NF-kB SEAP reporter activity,[2]; [8],1.49
CC(C)CN(CC(O)C(Cc1ccccc1)NC(=O)OC1COC2OCCC12)S(=O)(=O)c1ccc(N)cc1.CCO (stereo not drawn) (library stock concentration (final ~1000-fold dilution): 10 mM),NF-kB SEAP reporter activity,[1]; agonist: LPS (TLR4) 0.1 ug/mL,1.78
same,NF-kB SEAP reporter activity,[1]; [4],1.57
same,NF-kB SEAP reporter activity,[1]; [5],1.42
same,NF-kB SEAP reporter activity,[1]; [6],1.43
O=c1cc(N2CCOCC2)oc2c(-c3cccc4c3sc3ccccc34)cccc12 (library stock concentration (final ~1000-fold dilution): 2 mM),NF-kB SEAP reporter activity,[1]; agonist: LPS (TLR4) 0.1 ug/mL,5.39
CCCCc1nc(-c2ccc(OCCCN(CC)CC)cc2)cn1-c1ccc(Oc2ccc(Cl)cc2)cc1 (library stock concentration (final ~1000-fold dilution): 10 mM),NF-kB SEAP reporter activity,[3]; agonist: LPS (TLR4) 0.1 ug/mL,0.281
same,NF-kB SEAP reporter activity,[3]; [4],0.683
same,NF-kB SEAP reporter activity,[3]; [5],0.225
same,NF-kB SEAP reporter activity,[3]; [6],0.192
CCCCc1nc(-c2ccc(OCCCN(CC)CC)cc2)cn1-c1ccc(Oc2ccc(Cl)cc2)cc1,NF-kB SEAP reporter activity,"[2]; library stock concentration (final ~1000-fold dilution): 10 mM, cytotoxicity flag (confluency mask): cytotoxic (confluency <70% of control), agonist: Imiquimod (TLR7) […]",1.53
same,NF-kB SEAP reporter activity,"[2]; library stock concentration (final ~1000-fold dilution): 10 mM, cytotoxicity flag (confluency mask): cytotoxic (confluency <70% of control), agonist: MPLA (TLR4) […]",1.02
CCC(C)n1cc(C)c2c(C(=O)NCc3c(C)cc(C)[nH]c3=O)cc(-c3ccc(N4CCNCC4)nc3)cc21 (stereo not drawn) (library stock concentration (final ~1000-fold dilution): 2 mM),NF-kB SEAP reporter activity,[1]; agonist: LPS (TLR4) 0.1 ug/mL,1.17
same,NF-kB SEAP reporter activity,[1]; [4],0.973
same,NF-kB SEAP reporter activity,[1]; [5],0.979
same,NF-kB SEAP reporter activity,[1]; [6],1.07
CCC(C)n1cc(C)c2c(C(=O)NCc3c(C)cc(C)[nH]c3=O)cc(-c3ccc(N4CCNCC4)nc3)cc21 (stereo not drawn),NF-kB SEAP reporter activity,"[2]; library stock concentration (final ~1000-fold dilution): 2 mM, cytotoxicity flag (confluency mask): not cytotoxic, agonist: Imiquimod (TLR7) […]",0.954
same,NF-kB SEAP reporter activity,"[2]; library stock concentration (final ~1000-fold dilution): 2 mM, cytotoxicity flag (confluency mask): not cytotoxic, agonist: MPLA (TLR4) […]",0.941
COc1ccc([C@@H]2CC(=O)c3c(O)cc(O[C@@H]4O[C@H](CO[C@@H]5O[C@@H](C)[C@H](O)[C@@H](O)[C@H]5O)[C@@H](O)[C@H](O)[C@H]4O)cc3O2)cc1O,NF-kB SEAP reporter activity,[2]; [7],0.983
same,NF-kB SEAP reporter activity,[2]; [8],1.04
COc1ccc([C@@H]2CC(=O)c3c(O)cc(O[C@@H]4O[C@H](CO[C@@H]5O[C@@H](C)[C@H](O)[C@@H](O)[C@H]5O)[C@@H](O)[C@H](O)[C@H]4O)cc3O2)cc1O (library stock concentration (final ~1000-fold dilution): 10 mM),NF-kB SEAP reporter activity,[1]; agonist: LPS (TLR4) 0.1 ug/mL,0.857
same,NF-kB SEAP reporter activity,[1]; [4],0.912
same,NF-kB SEAP reporter activity,[1]; [5],0.775
same,NF-kB SEAP reporter activity,[1]; [6],0.745
Cc1n[nH]c2ccc(-c3cncc(OCC(N)Cc4ccccc4)c3)cc12 (stereo not drawn),NF-kB SEAP reporter activity,[2]; [7],0.904
same,NF-kB SEAP reporter activity,[2]; [8],0.967
Cc1n[nH]c2ccc(-c3cncc(OCC(N)Cc4ccccc4)c3)cc12 (stereo not drawn) (library stock concentration (final ~1000-fold dilution): 10 mM),NF-kB SEAP reporter activity,[1]; agonist: LPS (TLR4) 0.1 ug/mL,0.198
same,NF-kB SEAP reporter activity,[1]; [4],0.962
same,NF-kB SEAP reporter activity,[1]; [5],0.447
same,NF-kB SEAP reporter activity,[1]; [6],1.01
O=C(/C=C/c1ccc(O)c(O)c1)O[C@@H](C(=O)O)[C@@H](OC(=O)/C=C/c1ccc(O)c(O)c1)C(=O)O,NF-kB SEAP reporter activity,[2]; [7],0.78
same,NF-kB SEAP reporter activity,[2]; [8],1.01
O=C(/C=C/c1ccc(O)c(O)c1)O[C@@H](C(=O)O)[C@@H](OC(=O)/C=C/c1ccc(O)c(O)c1)C(=O)O (library stock concentration (final ~1000-fold dilution): 10 mM),NF-kB SEAP reporter activity,[1]; agonist: LPS (TLR4) 0.1 ug/mL,1.06
same,NF-kB SEAP reporter activity,[1]; [4],1.06
same,NF-kB SEAP reporter activity,[1]; [5],1.17
same,NF-kB SEAP reporter activity,[1]; [6],1.07
Cc1ccc(-c2csc(NC(=O)c3ccccc3)n2)c(C)c1,NF-kB SEAP reporter activity,[2]; [7],0.985
same,NF-kB SEAP reporter activity,[2]; [8],0.944
Cc1ccc(-c2csc(NC(=O)c3ccccc3)n2)c(C)c1 (library stock concentration (final ~1000-fold dilution): 10 mM),NF-kB SEAP reporter activity,[1]; agonist: LPS (TLR4) 0.1 ug/mL,1
same,NF-kB SEAP reporter activity,[1]; [4],1.01
same,NF-kB SEAP reporter activity,[1]; [5],0.9
same,NF-kB SEAP reporter activity,[1]; [6],1.15
CC(=O)NC1=NN(C(C)=O)C(C)(c2ccccc2)S1 (stereo not drawn) (library stock concentration (final ~1000-fold dilution): 10 mM),NF-kB SEAP reporter activity,[1]; agonist: LPS (TLR4) 0.1 ug/mL,0.649
same,NF-kB SEAP reporter activity,[1]; [4],0.779
same,NF-kB SEAP reporter activity,[1]; [5],0.693
same,NF-kB SEAP reporter activity,[1]; [6],0.899
CC(=O)NC1=NN(C(C)=O)C(C)(c2ccccc2)S1 (stereo not drawn),NF-kB SEAP reporter activity,[2]; [7],1.02
same,NF-kB SEAP reporter activity,[2]; [8],0.916
NC(Cc1ccc(Cl)cc1)C(=O)O (stereo not drawn) (library stock concentration (final ~1000-fold dilution): 10 mM),NF-kB SEAP reporter activity,[1]; agonist: LPS (TLR4) 0.1 ug/mL,0.981
same,NF-kB SEAP reporter activity,[1]; [4],1.05
same,NF-kB SEAP reporter activity,[1]; [5],1.08
same,NF-kB SEAP reporter activity,[1]; [6],1.04
NC(Cc1ccc(Cl)cc1)C(=O)O (stereo not drawn),NF-kB SEAP reporter activity,[2]; [7],1.04
same,NF-kB SEAP reporter activity,[2]; [8],1.08
CC(C(=O)O)c1ccc2c(c1)Cc1cccnc1O2 (stereo not drawn) (library stock concentration (final ~1000-fold dilution): 10 mM),NF-kB SEAP reporter activity,[1]; agonist: LPS (TLR4) 0.1 ug/mL,1.32
same,NF-kB SEAP reporter activity,[1]; [4],1.03
same,NF-kB SEAP reporter activity,[1]; [5],1.05
same,NF-kB SEAP reporter activity,[1]; [6],1.03
CC(C(=O)O)c1ccc2c(c1)Cc1cccnc1O2 (stereo not drawn),NF-kB SEAP reporter activity,[2]; [7],0.936
same,NF-kB SEAP reporter activity,[2]; [8],1.01
